# Measurements taken from US20170362327A1.
# B1: GBR VH5(V37A)VL1 (antibody, human IgG1, kappa)
# heavy: EVKLLESGGGLVQPGGSLRLSCAASGFTFSTYTMSWARQTPGKRLEWVAYISKGGGSTYYPDTVKGRFTISRDNSKNTLYLQMNSLRAEDTAVYYCARGAMYGNDFFYPMDYWGQGTTVTVSS[letters of human IgG1 constant region not shown]
# light: EIVLTQSPATLSLSPGERATLSCSASSSVSYMHWYQQKPGQAPRLLIYTTSNLASGIPARFSGSGSGTDFTLTISSLEPEDFAVYYCHQWSSYPWTFGQGTKLEIKRTVAAPSVFIFPPSDEQLKSGTASVVCLLNNFYPREAKVQWKVDNALQSGNSQESVTEQDSKDSTYSLSSTLTLSKADYEKHKVYACEVTHQGLSSPVTKSFNRGEC
# B2: BXhVH5VL1 (antibody, human IgG1, kappa)
# heavy: EVKLLESGGGLVQPGGSLRLSCAASGFTFSTYTMSWVRQTPGKRLEWVAYISKGGGSTYYPDTVKGRFTISRDNSKNTLYLQMNSLRAEDTAVYYCARGAMYGNDFFYPMDYWGQGTTVTVSS[letters of human IgG1 constant region not shown]
# light: EIVLTQSPATLSLSPGERATLSCSASSSVSYMHWYQQKPGQAPRLLIYTTSNLASGIPARFSGSGSGTDFTLTISSLEPEDFAVYYCHQWSSYPWTFGQGTKLEIKRTVAAPSVFIFPPSDEQLKSGTASVVCLLNNFYPREAKVQWKVDNALQSGNSQESVTEQDSKDSTYSLSSTLTLSKADYEKHKVYACEVTHQGLSSPVTKSFNRGEC
# B3: GBR VH3(V37A)VL1 (antibody, human IgG1, kappa)
# heavy: EVQLLESGGGLVQPGGSLRLSCAASGFTFSTYTMSWARQTPGKRLEWVAYISKGGGSTYYPDTVKGRFTISRDNSKNTLYLQMNSLRAEDTAVYYCAKGAMYGNDFFYPMDYWGQGTTVTVSS[letters of human IgG1 constant region not shown]
# light: EIVLTQSPATLSLSPGERATLSCSASSSVSYMHWYQQKPGQAPRLLIYTTSNLASGIPARFSGSGSGTDFTLTISSLEPEDFAVYYCHQWSSYPWTFGQGTKLEIKRTVAAPSVFIFPPSDEQLKSGTASVVCLLNNFYPREAKVQWKVDNALQSGNSQESVTEQDSKDSTYSLSSTLTLSKADYEKHKVYACEVTHQGLSSPVTKSFNRGEC
# B4: GBR VH3(V37A)VL3 (antibody, human IgG1, kappa)
# heavy: EVQLLESGGGLVQPGGSLRLSCAASGFTFSTYTMSWARQTPGKRLEWVAYISKGGGSTYYPDTVKGRFTISRDNSKNTLYLQMNSLRAEDTAVYYCAKGAMYGNDFFYPMDYWGQGTTVTVSS[letters of human IgG1 constant region not shown]
# light: QIVLTQSPATLSLSPGERATLSCSASSSVSYMHWYQQKPGQSPRLLIYTTSNLASGIPSRFSGSGSGTFYTLTISSLEPEDFAVYYCHQWSSYPWTFGGGTKLEIKRTVAAPSVFIFPPSDEQLKSGTASVVCLLNNFYPREAKVQWKVDNALQSGNSQESVTEQDSKDSTYSLSSTLTLSKADYEKHKVYACEVTHQGLSSPVTKSFNRGEC
# B5: GBR VH5(K3Q,V37A)VL1 (antibody, human IgG1, kappa)
# heavy: EVQLLESGGGLVQPGGSLRLSCAASGFTFSTYTMSWARQTPGKRLEWVAYISKGGGSTYYPDTVKGRFTISRDNSKNTLYLQMNSLRAEDTAVYYCARGAMYGNDFFYPMDYWGQGTTVTVSS[letters of human IgG1 constant region not shown]
# light: EIVLTQSPATLSLSPGERATLSCSASSSVSYMHWYQQKPGQAPRLLIYTTSNLASGIPARFSGSGSGTDFTLTISSLEPEDFAVYYCHQWSSYPWTFGQGTKLEIKRTVAAPSVFIFPPSDEQLKSGTASVVCLLNNFYPREAKVQWKVDNALQSGNSQESVTEQDSKDSTYSLSSTLTLSKADYEKHKVYACEVTHQGLSSPVTKSFNRGEC
# B6: GBR VH5(K3Q,V37A)VL1 IGHG4 S228P (antibody, human IgG4 S228P, kappa)
# heavy: EVQLLESGGGLVQPGGSLRLSCAASGFTFSTYTMSWARQTPGKRLEWVAYISKGGGSTYYPDTVKGRFTISRDNSKNTLYLQMNSLRAEDTAVYYCARGAMYGNDFFYPMDYWGQGTTVTVSSASTKGPSVFPLAPCSRSTSESTAALGCLVKDYFPEPVTVSWNSGALTSGVHTFPAVLQSSGLYSLSSVVTVPSSSLGTKTYTCNVDHKPSNTKVDKRV[letters of human IgG4 Fc with S228P (EU numbers) not shown]
# light: EIVLTQSPATLSLSPGERATLSCSASSSVSYMHWYQQKPGQAPRLLIYTTSNLASGIPARFSGSGSGTDFTLTISSLEPEDFAVYYCHQWSSYPWTFGQGTKLEIKRTVAAPSVFIFPPSDEQLKSGTASVVCLLNNFYPREAKVQWKVDNALQSGNSQESVTEQDSKDSTYSLSSTLTLSKADYEKHKVYACEVTHQGLSSPVTKSFNRGEC
# B7: GBR VH5(V37A)VL3 (antibody, human IgG1, kappa)
# heavy: EVKLLESGGGLVQPGGSLRLSCAASGFTFSTYTMSWARQTPGKRLEWVAYISKGGGSTYYPDTVKGRFTISRDNSKNTLYLQMNSLRAEDTAVYYCARGAMYGNDFFYPMDYWGQGTTVTVSS[letters of human IgG1 constant region not shown]
# light: QIVLTQSPATLSLSPGERATLSCSASSSVSYMHWYQQKPGQSPRLLIYTTSNLASGIPSRFSGSGSGTFYTLTISSLEPEDFAVYYCHQWSSYPWTFGGGTKLEIKRTVAAPSVFIFPPSDEQLKSGTASVVCLLNNFYPREAKVQWKVDNALQSGNSQESVTEQDSKDSTYSLSSTLTLSKADYEKHKVYACEVTHQGLSSPVTKSFNRGEC
# Biological target: human TrkA on the surface of TF-1 cells (human), P04629
# Test: cell-based or functional assay
# human TrkA on the surface of TF-1 cells (human), P04629, sequence (P04629 33-796): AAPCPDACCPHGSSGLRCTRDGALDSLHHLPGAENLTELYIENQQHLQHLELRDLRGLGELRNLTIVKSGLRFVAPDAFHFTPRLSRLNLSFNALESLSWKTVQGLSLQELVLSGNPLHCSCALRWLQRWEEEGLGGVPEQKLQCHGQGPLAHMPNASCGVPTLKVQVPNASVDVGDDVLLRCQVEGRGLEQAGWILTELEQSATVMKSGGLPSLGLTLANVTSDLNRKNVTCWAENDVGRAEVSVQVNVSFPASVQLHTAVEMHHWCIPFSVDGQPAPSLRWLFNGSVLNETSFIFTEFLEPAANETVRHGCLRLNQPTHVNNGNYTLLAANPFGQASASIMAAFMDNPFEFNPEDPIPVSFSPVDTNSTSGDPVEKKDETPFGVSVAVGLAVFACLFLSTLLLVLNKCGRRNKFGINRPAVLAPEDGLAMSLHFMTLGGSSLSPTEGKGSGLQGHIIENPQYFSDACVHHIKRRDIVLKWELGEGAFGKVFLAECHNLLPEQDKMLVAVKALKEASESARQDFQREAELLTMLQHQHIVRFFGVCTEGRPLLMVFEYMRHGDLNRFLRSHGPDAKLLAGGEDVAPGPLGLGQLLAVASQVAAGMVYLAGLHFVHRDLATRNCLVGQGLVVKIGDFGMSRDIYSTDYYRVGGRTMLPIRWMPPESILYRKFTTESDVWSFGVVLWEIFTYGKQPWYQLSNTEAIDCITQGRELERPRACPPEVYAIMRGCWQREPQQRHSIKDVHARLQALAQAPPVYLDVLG
Binder,TF-1 cell proliferation assay IC50 (beta-NGF induced proliferation) [µg/mL],"TF-1 cell proliferation assay, potency against BXhVH5VL1 [fold]","TF-1 cell proliferation assay, potency against MNAC13 [fold]"
B1,0.075,10,3
B2,0.73,–,–
B3,0.15,–,–
B4,0.29,–,–
B5,0.15,–,–
B6,0.15,–,–
B7,0.22,–,–
